In paper PMC4336329 (PLoS ONE, 2015):
Hit rate of the full screen: of about 310,000 compounds, about 14,000 (4.5%) showed an effect of 50% or more. Effects have a minus sign here. The list shows a part of the results.

Molecular target: human ether-à-go-go-related gene (hERG) potassium channel (human, UniProt Q12809)
Test: primary screen, population patch clamp on CHO cells stably expressing hERG
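Also: peak tail current of the secondary pulse compared with the same well before compound.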

Sequence of human ether-à-go-go-related gene (hERG) potassium channel (Q12809 whole entry, looked up): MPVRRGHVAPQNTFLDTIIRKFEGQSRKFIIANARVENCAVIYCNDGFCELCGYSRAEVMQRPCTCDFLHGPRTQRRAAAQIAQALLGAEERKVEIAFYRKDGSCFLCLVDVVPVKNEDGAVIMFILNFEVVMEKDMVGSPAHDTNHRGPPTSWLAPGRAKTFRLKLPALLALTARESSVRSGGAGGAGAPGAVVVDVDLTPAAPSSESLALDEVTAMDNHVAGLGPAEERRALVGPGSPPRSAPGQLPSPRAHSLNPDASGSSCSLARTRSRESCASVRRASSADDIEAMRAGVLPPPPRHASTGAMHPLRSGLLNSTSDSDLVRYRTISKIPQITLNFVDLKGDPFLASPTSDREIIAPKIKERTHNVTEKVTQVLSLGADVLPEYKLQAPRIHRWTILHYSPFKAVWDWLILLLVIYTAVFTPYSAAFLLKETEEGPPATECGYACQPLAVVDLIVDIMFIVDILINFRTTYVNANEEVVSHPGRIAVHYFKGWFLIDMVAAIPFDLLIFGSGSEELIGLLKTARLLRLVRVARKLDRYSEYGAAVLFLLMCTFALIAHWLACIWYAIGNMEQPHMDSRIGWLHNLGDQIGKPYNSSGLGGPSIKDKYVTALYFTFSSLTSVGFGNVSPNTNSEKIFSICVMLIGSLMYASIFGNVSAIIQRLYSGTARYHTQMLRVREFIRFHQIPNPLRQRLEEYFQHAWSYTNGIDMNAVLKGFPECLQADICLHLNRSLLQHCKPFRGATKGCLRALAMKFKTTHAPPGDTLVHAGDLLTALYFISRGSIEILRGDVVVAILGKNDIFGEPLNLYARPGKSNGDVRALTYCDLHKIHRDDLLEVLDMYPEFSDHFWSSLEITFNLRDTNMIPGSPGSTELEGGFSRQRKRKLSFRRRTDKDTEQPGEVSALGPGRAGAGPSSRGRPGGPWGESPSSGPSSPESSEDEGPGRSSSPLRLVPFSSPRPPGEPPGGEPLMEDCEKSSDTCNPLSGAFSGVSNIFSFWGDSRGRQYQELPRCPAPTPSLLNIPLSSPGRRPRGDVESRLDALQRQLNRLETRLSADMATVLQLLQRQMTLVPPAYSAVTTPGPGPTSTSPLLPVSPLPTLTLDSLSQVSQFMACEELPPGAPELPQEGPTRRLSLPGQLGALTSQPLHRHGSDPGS

Which “hERG current change (%, negative = inhibition) at 10uM” value does the source give for `Cc1cccc(OCCC(=O)OCC(=O)Nc2c(C)nn(-c3ccccc3)c2C)c1` here?
The value was -22.6%.

Which “hERG current change (%, negative = inhibition) at 10uM” value does the source give for `Fc1ccc2c(c1)nnn2C1CCN(Cc2c(Cl)cccc2Cl)CC1` here?
The value was 7.11%.

For `CC(NS(=O)(=O)c1ccc2c(c1)oc(=O)n2C)c1ccccc1` (centres unmarked), which “hERG current change (%, negative = inhibition) at 10uM” value is on record?
Its value is 6.29%.

How did the “hERG current change (%, negative = inhibition) at 10uM” value turn out when `Cc1n[nH]c(C)c1S(=O)(=O)N1CCCC(C(=O)NC2CCCCC2)C1` (centres unmarked) was run?
The value was 6.14%.

`Nc1ccc2oc3ccc(N)cc3c(=O)c2c1` was tested. Which “hERG current change (%, negative = inhibition) at 10uM” value did it give?
Its value is 13.8%.

`Cc1ccc(C2CC2c2n[nH]c(=S)n2-c2cccc(Cl)c2)cc1` (centres unmarked) was tested. Which “hERG current change (%, negative = inhibition) at 10uM” value did it give?
The value was 21.6%.

`C=CCN(CC=C)CCOc1ccccc1.O=C(O)C(=O)O` was tested. Which “hERG current change (%, negative = inhibition) at 10uM” value did it give?
Its value is 3.37%.

How did the “hERG current change (%, negative = inhibition) at 10uM” value turn out when `Cc1ccc2c3c(cccc13)-c1ccccc1C2=O` was run?
The value was 8.03%.

How did the “hERG current change (%, negative = inhibition) at 10uM” value turn out when `CCN1C(=O)N[C@@H](c2ccc(Br)cc2)C(C(=O)OC)=C1C` was run?
The value was -13.6%.

With `CC(C)CN(C(=O)CN(C)C(=O)Cc1ccc(Cl)cc1)c1c(N)n(CC(C)C)c(=O)[nH]c1=O` as the compound, how does the “hERG current change (%, negative = inhibition) at 10uM” value read?
The value was 10.8%.

With `CCn1c(SCC(=O)Nc2cccc(C)n2)nnc1-c1ccco1` as the compound, how does the “hERG current change (%, negative = inhibition) at 10uM” value read?
The value was -50.9%.

For `S=C(c1ccc(-c2ccc(Cl)cc2Cl)o1)N1CCCC1`, which “hERG current change (%, negative = inhibition) at 10uM” value is on record?
Its value is 16.9%.

`COc1ccc(CCNC(=O)CCCn2c(SCC#N)nc3ccccc3c2=O)cc1OC` was tested. Which “hERG current change (%, negative = inhibition) at 10uM” value did it give?
The value was -12.7%.

Which “hERG current change (%, negative = inhibition) at 10uM” value does the source give for `CCN(CCn1cccn1)Cc1c(C(=O)N2C[C@@H](C)O[C@@H](C)C2)nc2ccc(Cl)cn12` here?
Its value is 17.4%.

Which “hERG current change (%, negative = inhibition) at 10uM” value does the source give for `C=CCNC(=S)NNC(=O)c1cc(Cl)ccc1OC` here?
Its value is 18.2%.

`O=C(NC1CCCC1)C(c1ccc(F)cc1)N(C(=O)c1csnn1)C1CCCC1` (centres unmarked) was tested. Which “hERG current change (%, negative = inhibition) at 10uM” value did it give?
The value was 9.14%.

For `CC1CCCC(NC(=O)CCNS(=O)(=O)c2ccc(Br)cc2)C1C` (centres unmarked), which “hERG current change (%, negative = inhibition) at 10uM” value is on record?
The value was -27.5%.

Which “hERG current change (%, negative = inhibition) at 10uM” value does the source give for `O=C(Cn1cc(C(=O)C(F)(F)F)c2ccccc21)NCc1ccco1` here?
Its value is 7.02%.

`Cc1oc(-c2ccccc2F)nc1CS(=O)(=O)CC(=O)NCCCN1CCc2ccccc2C1` was tested. Which “hERG current change (%, negative = inhibition) at 10uM” value did it give?
The value was -48.6%.

`CCN(C(=O)c1ccc(S(=O)(=O)N(C)C)cc1)C(C)C(=O)Nc1ccc(C)cc1` (centres unmarked) was tested. Which “hERG current change (%, negative = inhibition) at 10uM” value did it give?
Its value is 14.2%.

With `C=CCn1c(-c2cccn(Cc3ccccc3)c2=O)n[nH]c1=S` as the compound, how does the “hERG current change (%, negative = inhibition) at 10uM” value read?
Its value is 16.9%.

Which “hERG current change (%, negative = inhibition) at 10uM” value does the source give for `CCn1cc(C(=O)OCC(=O)NCc2ccccc2Cl)c(=O)c2ccc(C)nc21` here?
The value was 13.9%.

How did the “hERG current change (%, negative = inhibition) at 10uM” value turn out when `Cc1ccc(S(=O)(=O)c2nc(S(C)(=O)=O)sc2N2CCC(C(N)=O)CC2)cc1` was run?
The value was 7.6%.

How did the “hERG current change (%, negative = inhibition) at 10uM” value turn out when `Cc1cccc(C)c1NC(=O)CNC(=O)c1cccc(S(=O)(=O)NCc2cccs2)c1` was run?
The value was 1.15%.

`O=C(Nc1ccc(N2CCCCC2)cc1)c1cc([N+](=O)[O-])cc([N+](=O)[O-])c1` was tested. Which “hERG current change (%, negative = inhibition) at 10uM” value did it give?
The value was 16.8%.

For `Cc1cc(C(=O)CN2C(=O)NC3(CCCCC3)C2=O)c(C)n1Cc1ccc2c(c1)OCO2`, which “hERG current change (%, negative = inhibition) at 10uM” value is on record?
Its value is 5.87%.

For `CCSc1nc(N)c2c3c(sc2n1)CN(C)CC3`, which “hERG current change (%, negative = inhibition) at 10uM” value is on record?
Its value is -19.5%.

For `CC(=O)N(Cc1ccco1)Cc1cc2cccc(C)c2n2nnnc12`, which “hERG current change (%, negative = inhibition) at 10uM” value is on record?
The value was -3.36%.

For `CC1CCN(CCCNS(=O)(=O)c2cc(Br)cc3c2N(C(=O)C2CC2)CC3)CC1`, which “hERG current change (%, negative = inhibition) at 10uM” value is on record?
The value was -26.9%.

`O=C(NCc1ccccc1Cl)c1cccc(NC(=O)c2ccccc2)c1` was tested. Which “hERG current change (%, negative = inhibition) at 10uM” value did it give?
The value was -8.78%.

`NS(=O)(=O)c1ccc(-n2ncc3c(=O)[nH]c(SCC(=O)Nc4nccs4)nc32)cc1` was tested. Which “hERG current change (%, negative = inhibition) at 10uM” value did it give?
The value was 18.1%.

`CN(C)C(=O)c1cc(Cl)ccc1Sc1cc(Cl)ccc1Cl` was tested. Which “hERG current change (%, negative = inhibition) at 10uM” value did it give?
The value was -6.03%.

For `COc1cccc(CNC(=O)C(CCSC)NS(=O)(=O)c2ccc3c(c2)oc(=O)n3C)c1` (centres unmarked), which “hERG current change (%, negative = inhibition) at 10uM” value is on record?
Its value is -3.38%.

`Cc1cccc(C)c1NC(=O)COC(=O)Cc1ccsc1` was tested. Which “hERG current change (%, negative = inhibition) at 10uM” value did it give?
Its value is 12.8%.

For `O=[N+]([O-])c1ccc(N2CCCC2)nc1N1CCCC1`, which “hERG current change (%, negative = inhibition) at 10uM” value is on record?
Its value is 3.34%.

`CCOC(=O)N1CCC2(CC1)C(C#N)=C(N)Oc1c2sc2nc(C)cc(C)c12` was tested. Which “hERG current change (%, negative = inhibition) at 10uM” value did it give?
Its value is 12.9%.

Which “hERG current change (%, negative = inhibition) at 10uM” value does the source give for `CC(Oc1cccc(F)c1)C(=O)Nc1ccc(N2CCOCC2)cc1` (centres unmarked) here?
The value was 4.79%.

For `O=C(NCc1ccco1)C1CCCN1S(=O)(=O)c1ccccc1C(F)(F)F` (centres unmarked), which “hERG current change (%, negative = inhibition) at 10uM” value is on record?
Its value is -3.75%.

`Cc1cc2c(C)nc(N/N=C/c3ccc(F)cc3)nc2o1` was tested. Which “hERG current change (%, negative = inhibition) at 10uM” value did it give?
The value was -52.7%.

For `COc1cc(SC)ccc1C(=O)Nc1cc(C)c(OCC(=O)N2CCOCC2)c(C)c1`, which “hERG current change (%, negative = inhibition) at 10uM” value is on record?
Its value is -18.8%.

Which “hERG current change (%, negative = inhibition) at 10uM” value does the source give for `Cc1ccc(OCC(=O)NNC(=O)C(C)Sc2ncnc3sc(C)c(C)c23)cc1` (centres unmarked) here?
Its value is -15.2%.

`Clc1ccc(CO/N=C2\CCCc3nonc32)cc1` was tested. Which “hERG current change (%, negative = inhibition) at 10uM” value did it give?
The value was -19.2%.

Which “hERG current change (%, negative = inhibition) at 10uM” value does the source give for `Cc1ccc(-c2cc(C(=O)N3CCCCCC3)no2)cc1` here?
The value was 13.4%.

With `O=C(NCc1cccnc1)c1cc2nc(-c3cccs3)cc(C(F)(F)Cl)n2n1` as the compound, how does the “hERG current change (%, negative = inhibition) at 10uM” value read?
Its value is -34.3%.
